According to the supplement of paper PMC4967469:

How the values were obtained:
Assay in all cases: Viability of human cancer cell lines after 72 h of drug (GDSC screen)
PI-103 = compound: Oc1cccc(-c2nc(N3CCOCC3)c3oc4ncccc4c3n2)c1 [PI-103]; conditions: top dose 10.24 µM
Description: (§1)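 Human cancer cell lines in 384-well plates, medium with 10% serum, drug for 72 h over a 256-fold dose range (nine 2-fold or five 4-fold steps up to the top dose). Adherent lines were fixed and stained with the nucleic acid dye Syto60, suspension lines read with resazurin; signal relative to control wells, capped at 0 and 100%. One two-parameter sigmoid per drug and line, fitted in a mixed model over all curves with the slope shared within a line.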

SB-505124 = compound: Cc1cccc(-c2[nH]c(C(C)(C)C)nc2-c2ccc3c(c2)OCO3)n1 [SB-505124]; conditions: top dose 10 µM; top dose inferred
Description: as §1

GSK690693 = compound: CCn1c(-c2nonc2N)nc2c(C#CC(C)(C)O)ncc(OC[C@H]3CCCNC3)c21 [GSK690693]; conditions: top dose 10.24 µM; top dose inferred
Description: as §1

UNC0638 = compound: COc1cc2c(NC3CCN(C(C)C)CC3)nc(C3CCCCC3)nc2cc1OCCCN1CCCC1 [UNC0638]
Description: as §1

[1] = top dose 20 µM, screen: GDSC drug entry 1236, top dose inferred
[2] = top dose 40 µM, screen: GDSC drug entry 245

Row | Cell Line | AUC (PI-103) | IC50 (PI-103) | AUC (SB-505124) | IC50 (SB-505124) | AUC (GSK690693) | IC50 (GSK690693) | AUC (UNC0638; [1]) | IC50 (UNC0638; [1]) | AUC (UNC0638; [2]) | IC50 (UNC0638; [2])
1 | A204 (rhabdomyosarcoma, adherent) | 0.411 | 0.34 µM | 0.944 | > 10 µM | 0.883 | > 10.2 µM | 0.75 | 8.24 µM | 0.704 | 11.3 µM
2 | BEN (non-small cell lung carcinoma, adherent) | 0.559 | 0.952 µM | 0.982 | > 10 µM | 0.986 | > 10.2 µM | 0.952 | > 20 µM | 0.813 | 25.5 µM
3 | BFTC-909 (kidney, adherent) | 0.9 | > 10.2 µM | 0.947 | > 10 µM | 0.988 | > 10.2 µM | 0.938 | > 20 µM | 0.875 | 37.7 µM
4 | CAMA-1 (breast, adherent) | 0.634 | 1.65 µM | 0.98 | > 10 µM | 0.839 | 9.71 µM | 0.982 | > 20 µM | 0.909 | > 40 µM
5 | COLO-792 (melanoma, adherent) | 0.387 | 0.315 µM | 0.957 | > 10 µM | 0.948 | > 10.2 µM | 0.827 | 12 µM | 0.954 | > 40 µM
6 | COR-L105 (lung adenocarcinoma, adherent) | 0.823 | 7.9 µM | 0.973 | > 10 µM | 0.93 | > 10.2 µM | 0.907 | > 20 µM | 0.701 | 10.5 µM
7 | GCT (soft tissue, adherent) | 0.988 | > 10.2 µM | 0.988 | > 10 µM | 0.989 | > 10.2 µM | 0.719 | 4.95 µM | 0.936 | > 40 µM
8 | GP5d (large intestine, adherent) | 0.966 | > 10.2 µM | 0.99 | > 10 µM | 0.946 | > 10.2 µM | 0.99 | > 20 µM | 0.851 | 25.9 µM
9 | H2803 (mesothelioma, adherent) | 0.981 | > 10.2 µM | 0.983 | > 10 µM | 0.985 | > 10.2 µM | 0.872 | > 20 µM | 0.872 | > 40 µM
10 | H2804 (mesothelioma, adherent) | 0.932 | > 10.2 µM | 0.984 | > 10 µM | 0.977 | > 10.2 µM | 0.836 | 15.1 µM | 0.793 | 20.3 µM
11 | H2818 (mesothelioma, adherent) | 0.98 | > 10.2 µM | 0.986 | > 10 µM | 0.982 | > 10.2 µM | 0.975 | > 20 µM | 0.891 | > 40 µM
12 | HO-1-N-1 (head and neck, adherent) | 0.871 | 8.31 µM | 0.987 | > 10 µM | 0.988 | > 10.2 µM | 0.948 | > 20 µM | 0.867 | 31.1 µM
13 | HPAC (pancreas, adherent) | 0.97 | > 10.2 µM | 0.9 | > 10 µM | 0.975 | > 10.2 µM | 0.965 | > 20 µM | 0.91 | > 40 µM
14 | HPAF-II (pancreas, adherent) | 0.906 | > 10.2 µM | 0.915 | > 10 µM | 0.979 | > 10.2 µM | 0.923 | > 20 µM | 0.902 | > 40 µM
15 | HSC-3 (head and neck, adherent) | 0.888 | 8.65 µM | 0.968 | > 10 µM | 0.99 | > 10.2 µM | 0.735 | 5.19 µM | 0.867 | 27.6 µM
16 | HTC-C3 (thyroid, adherent) | 0.453 | 0.47 µM | 0.982 | > 10 µM | 0.979 | > 10.2 µM | 0.904 | > 20 µM | 0.896 | > 40 µM
17 | Hs940-T (melanoma, adherent) | 0.6 | 1.28 µM | 0.965 | > 10 µM | 0.979 | > 10.2 µM | 0.981 | > 20 µM | 0.93 | > 40 µM
18 | IM-95 (stomach, adherent) | 0.9 | > 10.2 µM | 0.984 | > 10 µM | 0.741 | 3.32 µM | 0.969 | > 20 µM | 0.801 | 21.1 µM
19 | J82 (bladder, adherent) | 0.839 | 6.93 µM | 0.987 | > 10 µM | 0.979 | > 10.2 µM | 0.853 | 15.5 µM | 0.866 | 35.5 µM
20 | KOSC-2 (head and neck, adherent) | 0.642 | 1.61 µM | 0.94 | > 10 µM | 0.984 | > 10.2 µM | 0.703 | 4.8 µM | 0.839 | 29 µM
21 | KP-4 (pancreas, adherent) | 0.539 | 0.816 µM | 0.986 | > 10 µM | 0.899 | > 10.2 µM | 0.978 | > 20 µM | 0.904 | > 40 µM
22 | KYSE-180 (oesophagus, adherent) | 0.801 | 4.74 µM | 0.979 | > 10 µM | 0.963 | > 10.2 µM | 0.782 | 7.97 µM | 0.693 | 8.48 µM
23 | LU-99A (large cell lung carcinoma, adherent) | 0.924 | > 10.2 µM | 0.986 | > 10 µM | 0.985 | > 10.2 µM | 0.815 | 10.8 µM | 0.779 | 16.1 µM

Lines with a small IC50 respond at low doses; where the fit passes the top or lowest dose, that dose stands as a limit. AUC, from the same fit, is the share of area under the viability curve across the 256-fold dose range; values near 1 show little effect. For some assays here: A top dose marked as inferred was derived from the fitted curves, not read from the paper. For some assays here: Drugs with an entry number were screened twice under separate entries, and the two screens often disagree.
